This is one part of the list. Viral Rep nickase domains cut single-stranded DNA in vitro (1 h at 37 °C, 3 µM enzyme); the outer parts of the 90-letter strands are left off. A value is the log2 ratio of uncut reads to the pool without enzyme; strong cutting gives strongly negative numbers. There is no active / inactive call. Reads are scaled to the total; uncut strands gain when others are lost, and binding without cutting may add a little.
How the values were obtained:
Test in all cases: uncleaved DNA left, log2 of reads against the no-enzyme library (log2 ratio); higher = less cleavage (more negative = more Rep cleavage of the k-mer); sequences stand for … in CTCGTCCG…ACCGGAGA
[1] = tested on: T1, Rep nickase domain of Muscovy duck circovirus
T1 sequence (residues 1-111 of Rep, tag left off): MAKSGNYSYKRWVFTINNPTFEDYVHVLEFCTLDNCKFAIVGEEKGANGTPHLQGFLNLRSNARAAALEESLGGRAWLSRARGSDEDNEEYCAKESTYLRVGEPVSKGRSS
Description: (§1)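 A pool of 90-nt single-stranded DNAs with seven random bases just before the constant AC of the nick site (name = the seven bases) was cut by 3 µM recombinant His6-SUMO-tagged Rep nickase domain (300 nM DNA, 50 mM HEPES pH 8.0, 50 mM NaCl, 1 mM MnCl2, 1 h, 37 °C, three replicates). Uncut DNA was amplified and sequenced.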

[2] = tested on: T2, Rep nickase domain of banana bunchy top virus
T2 sequence (residues 1-94 of Rep, tag left off): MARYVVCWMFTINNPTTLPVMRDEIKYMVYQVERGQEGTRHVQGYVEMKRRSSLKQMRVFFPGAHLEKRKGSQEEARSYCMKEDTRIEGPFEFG
Description: as §1

[3] = tested on: T3, Rep nickase domain of cabbage leaf curl virus
T3 sequence (residues 1-116 of Rep, tag left off): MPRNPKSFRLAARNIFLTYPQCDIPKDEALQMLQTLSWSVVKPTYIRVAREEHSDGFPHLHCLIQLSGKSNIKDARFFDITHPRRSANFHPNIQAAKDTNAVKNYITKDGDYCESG
Description: as §1

[4] = tested on: T4, Rep nickase domain of chickpea chlorotic dwarf virus
T4 sequence (residues 1-124 of Rep, tag left off): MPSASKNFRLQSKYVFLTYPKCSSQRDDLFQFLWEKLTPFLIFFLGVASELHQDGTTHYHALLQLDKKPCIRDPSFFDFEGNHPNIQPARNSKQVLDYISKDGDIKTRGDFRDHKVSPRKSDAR
Description: as §1

[5] = tested on: T5, Rep nickase domain of faba bean necrotic yellows virus
T5 sequence (residues 1-98 of Rep, tag left off): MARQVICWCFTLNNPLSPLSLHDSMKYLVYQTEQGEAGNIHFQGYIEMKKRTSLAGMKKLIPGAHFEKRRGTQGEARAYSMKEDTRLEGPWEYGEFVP
Description: as §1

[6] = tested on: T6, Rep nickase domain of maize striate mosaic virus
T6 sequence (residues 1-117 of Rep, tag left off): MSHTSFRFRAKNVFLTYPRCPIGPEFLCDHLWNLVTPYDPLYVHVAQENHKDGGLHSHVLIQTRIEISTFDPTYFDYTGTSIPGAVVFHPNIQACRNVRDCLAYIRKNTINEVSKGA
Description: as §1

[7] = tested on: T7, Rep nickase domain of porcine circovirus 2
T7 sequence (residues 2-116 of Rep, tag left off): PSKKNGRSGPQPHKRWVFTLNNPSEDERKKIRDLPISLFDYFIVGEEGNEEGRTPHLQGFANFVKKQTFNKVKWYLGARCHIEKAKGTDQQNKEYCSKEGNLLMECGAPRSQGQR
Description: as §1

[8] = tested on: T8, Rep nickase domain of tomato yellow leaf curl virus
T8 sequence (residues 1-136 of Rep, tag left off): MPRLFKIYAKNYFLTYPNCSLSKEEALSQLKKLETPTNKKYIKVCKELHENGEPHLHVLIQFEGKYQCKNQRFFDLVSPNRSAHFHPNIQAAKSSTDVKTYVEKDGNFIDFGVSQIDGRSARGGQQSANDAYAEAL
Description: as §1

[9] = tested on: T9, Rep nickase domain of wheat dwarf virus
T9 sequence (residues 1-137 of Rep, tag left off): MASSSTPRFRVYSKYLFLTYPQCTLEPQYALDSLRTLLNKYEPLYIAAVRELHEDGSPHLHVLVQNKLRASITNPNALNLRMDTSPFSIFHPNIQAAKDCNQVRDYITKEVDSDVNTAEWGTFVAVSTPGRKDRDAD
Description: as §1

Sequence	uncleaved DNA left (log2) [1]	uncleaved DNA left (log2) [2]	uncleaved DNA left (log2) [3]	uncleaved DNA left (log2) [4]	uncleaved DNA left (log2) [5]	uncleaved DNA left (log2) [6]	uncleaved DNA left (log2) [7]	uncleaved DNA left (log2) [8]	uncleaved DNA left (log2) [9]
TCAATGA	0.0365	-0.0578	0.0669	-0.0528	0.0515	-0.624	0.045	-0.00172	-0.0412
CATGCGG	0.0338	0.0931	0.286	1	0.0641	0.558	0.165	0.0497	0.0917
CACGAGT	-0.107	-0.0494	-0.0347	-0.469	0.0157	-0.773	-0.49	-0.149	-0.207
GCGTGCA	-0.123	-0.121	-0.175	-0.175	-0.0568	-0.578	-0.389	-0.0652	-0.115
GTATTTA	0.00747	0.0131	0.397	0.749	0.159	1.68	0.00727	0.0726	0.202
GTTGTGT	-0.0569	-0.108	-0.0794	0.0581	-0.0626	-0.211	-0.0339	0.014	-0.0703
TTAAGTA	0.132	0.107	-0.715	-2.35	0.048	-0.346	-0.0685	0.0186	-0.283
ATCTGTA	0.0486	-0.0256	-0.0279	0.0886	0.0109	0.464	-0.113	-0.0631	-0.0221
TGGAGCC	-0.0722	-0.0393	0.122	0.395	-0.123	0.185	-0.199	-0.0646	0.0144
GGACTAA	0.00258	-0.103	0.848	1.82	-0.0579	2.1	0.0157	0.0365	-0.0122
TCGTCTC	-0.161	-0.151	0.0427	-0.058	-0.112	0.0257	-0.543	-0.0967	-0.0878
CCCTGGC	0.106	-0.141	-0.133	-0.323	0.0467	-0.694	-0.0645	-0.053	-0.00761
ATTTTGG	0.0132	-0.025	-0.168	0.0078	-0.0232	-0.926	0.123	0.0227	-0.0417
TCCAGTT	-0.0701	-0.0978	-0.199	-1.68	0.0935	-0.533	-0.303	-0.136	-0.322
GCGACGA	0.0906	0.169	0.269	0.893	0.0785	1.52	0.212	-0.00933	0.107
ACAGGAG	0.292	0.0927	-0.439	0.109	0.241	-0.561	0.361	0.314	0.244
GCGTGAC	0.0966	0.166	0.526	1.38	-0.00681	1.7	0.141	-0.0394	0.074
AGTACGC	-0.0318	-0.0936	-0.0611	-0.297	0.0454	-0.54	0.0214	0.00252	-0.0682
CCGCAAG	0.0424	-0.0335	-0.713	-0.407	0.024	-0.661	0.239	0.0273	-0.0713
AAGCTGT	0.147	0.108	0.466	1.69	0.101	1.9	0.152	-0.126	0.162
TGGCGAA	0.0284	0.0537	-0.412	-0.378	0.0731	-0.601	0.0908	0.084	0.0398
AGTAGGC	-0.0887	-0.187	0.0738	0.201	-0.0657	-0.673	0.0389	-0.12	-0.115
CTGAAAT	-0.00555	-0.0582	0.0649	-0.396	0.00911	-0.211	-0.212	-0.118	0.053
GGACCCG	0.0227	-0.0404	0.515	1.18	-0.0578	0.578	0.0119	-0.0476	0.0482
ATAACTG	0.0759	0.0631	-0.13	0.129	0.0387	0.961	0.228	0.0886	0.2
AGTATCA	0.0305	0.0674	0.566	0.901	-0.0319	1.04	-0.229	0.144	0.175
TGCTAAG	0.0406	-0.015	-0.759	-0.495	0.101	-1.05	0.259	0.0797	-0.00413
GTCTCAT	-0.0283	0.0624	0.319	0.879	0.0129	1.77	-0.0374	0.00217	0.0484
GGCAAGT	-0.00823	0.0109	0.497	1.25	0.0105	1.7	0.0641	0.0397	0.0551
TATAGTG	0.0406	-0.0502	-0.569	-0.728	0.0182	-1.18	0.178	0.119	-0.141

— the supplement of paper PMC7826260
